This is one part of the list.
What was measured:
Experiment in all cases: glycan array binding signal (z-score within array); higher = stronger binding
Settings in all cases: glycan notation: IUPAC condensed, linker removed
[1] = target: Gal(b1-3)[Fuc(a1-4)]GlcNAc(b1-6)GalNAc
Outline: (§1)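 Arrays were curated from the Consortium for Functional Glycomics database, 3228 in total, and kept only where the protein sequence was available. Binding is expressed as a within-array Z-score. This score was averaged across arrays of the same protein sequence at different concentrations or buffers and across linkers, and negative values can be read as non-binding.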

[2] = target: Gal(b1-3)[GlcNAc(b1-6)]GalNAc
Outline: as §1

[3] = target: Gal(b1-3)[Neu5Ac(a2-6)]GalNAc
Outline: as §1

[4] = target: Gal(b1-3)[Neu5Ac(a2-6)]GlcNAc(b1-4)Gal(b1-4)Glc
Outline: as §1

[5] = target: Gal(b1-3)[Neu5Ac(b2-6)]GalNAc
Outline: as §1

Gal(b1-4)Gal = target: Gal(b1-4)Gal
Outline: as §1

[6] = target: Gal(b1-4)GalNAc(a1-3)[Fuc(a1-2)]Gal(b1-4)GlcNAc
Outline: as §1

[7] = target: Gal(b1-4)GalNAc(b1-3)[Fuc(a1-2)]Gal(b1-4)GlcNAc
Outline: as §1

Gal(b1-4)Glc = target: Gal(b1-4)Glc
Outline: as §1

Gal(b1-4)Glc6S = target: Gal(b1-4)Glc6S
Outline: as §1

Gal(b1-4)GlcNAc = target: Gal(b1-4)GlcNAc
Outline: as §1

[8] = target: Gal(b1-4)GlcNAc(a1-6)Gal(b1-4)GlcNAc
Outline: as §1

Gal(b1-4)GlcNAc(b1-2)Man = target: Gal(b1-4)GlcNAc(b1-2)Man
Outline: as §1

[9] = target: Gal(b1-4)GlcNAc(b1-2)Man(a1-3)Man(b1-4)GlcNAc(b1-4)GlcNAc
Outline: as §1

[10] = target: Gal(b1-4)GlcNAc(b1-2)Man(a1-3)[Gal(b1-4)GlcNAc(b1-2)Man(a1-6)]Man(b1-4)GlcNAc(b1-4)GlcNAc
Outline: as §1

[11] = target: Gal(b1-4)GlcNAc(b1-2)Man(a1-3)[Gal(b1-4)GlcNAc(b1-2)Man(a1-6)]Man(b1-4)GlcNAc(b1-4)[Fuc(a1-6)]GlcNAc
Outline: as §1

[12] = target: Gal(b1-4)GlcNAc(b1-2)Man(a1-3)[Gal(b1-4)GlcNAc(b1-2)Man(a1-6)][Gal(b1-4)GlcNAc(b1-4)]Man(b1-4)GlcNAc(b1-4)[Fuc(a1-6)]GlcNAc
Outline: as §1

[13] = target: Gal(b1-4)GlcNAc(b1-2)Man(a1-3)[Gal(b1-4)GlcNAc(b1-2)Man(a1-6)][GlcNAc(b1-4)]Man(b1-4)GlcNAc(b1-4)[Fuc(a1-6)]GlcNAc
Outline: as §1

[14] = target: Gal(b1-4)GlcNAc(b1-2)Man(a1-3)[GlcNAc(b1-2)Man(a1-6)]Man(b1-4)GlcNAc(b1-4)GlcNAc
Outline: as §1

[15] = target: Gal(b1-4)GlcNAc(b1-2)Man(a1-3)[GlcNAc(b1-4)][Gal(b1-4)GlcNAc(b1-2)Man(a1-6)]Man(b1-4)GlcNAc(b1-4)GlcNAc
Outline: as §1

[16] = target: Gal(b1-4)GlcNAc(b1-2)Man(a1-3)[Man(a1-6)]Man(b1-4)GlcNAc(b1-4)GlcNAc
Outline: as §1

[17] = target: Gal(b1-4)GlcNAc(b1-2)Man(a1-6)Man(b1-4)GlcNAc(b1-4)GlcNAc
Outline: as §1

[18] = target: Gal(b1-4)GlcNAc(b1-2)Man(a1-6)[GlcNAc(b1-2)Man(a1-3)]Man(b1-4)GlcNAc(b1-4)GlcNAc
Outline: as §1

[19] = target: Gal(b1-4)GlcNAc(b1-2)Man(a1-6)[Man(a1-3)]Man(b1-4)GlcNAc(b1-4)GlcNAc
Outline: as §1

[20] = target: Gal(b1-4)GlcNAc(b1-2)[Gal(b1-4)GlcNAc(b1-4)]Man(a1-3)[Gal(b1-4)GlcNAc(b1-2)Man(a1-6)]Man(b1-4)GlcNAc(b1-4)GlcNAc
Outline: as §1

[21] = target: Gal(b1-4)GlcNAc(b1-2)[Gal(b1-4)GlcNAc(b1-4)]Man(a1-3)[Gal(b1-4)GlcNAc(b1-2)[Gal(b1-4)GlcNAc(b1-6)]Man(a1-6)]Man(b1-4)GlcNAc(b1-4)GlcNAc
Outline: as §1

[22] = target: Gal(b1-4)GlcNAc(b1-2)[Gal(b1-4)GlcNAc(b1-4)]Man(a1-3)[GlcNAc(b1-4)][Gal(b1-4)GlcNAc(b1-2)Man(a1-6)]Man(b1-4)GlcNAc(b1-4)GlcNAc
Outline: as §1

[23] = target: Gal(b1-4)GlcNAc(b1-2)[Gal(b1-4)GlcNAc(b1-4)]Man(a1-3)[GlcNAc(b1-4)][Gal(b1-4)GlcNAc(b1-2)[Gal(b1-4)GlcNAc(b1-6)]Man(a1-6)]Man(b1-4)GlcNAc(b1-4)GlcNAc
Outline: as §1

[24] = target: Gal(b1-4)GlcNAc(b1-2)[Gal(b1-4)GlcNAc(b1-6)]Man(a1-6)[Gal(b1-4)GlcNAc(b1-2)Man(a1-3)]Man(b1-4)GlcNAc(b1-4)GlcNAc
Outline: as §1

[25] = target: Gal(b1-4)GlcNAc(b1-2)[Gal(b1-4)GlcNAc(b1-6)]Man(a1-6)[Gal(b1-4)GlcNAc(b1-2)Man(a1-3)]Man(b1-4)GlcNAc(b1-4)[Fuc(a1-6)]GlcNAc
Outline: as §1

[26] = target: Gal(b1-4)GlcNAc(b1-2)[Gal(b1-4)GlcNAc(b1-6)]Man(a1-6)[GlcNAc(b1-4)][Gal(b1-4)GlcNAc(b1-2)Man(a1-3)]Man(b1-4)GlcNAc(b1-4)GlcNAc
Outline: as §1

[27] = target: Gal(b1-4)GlcNAc(b1-2)[Gal(b1-4)GlcNAc(b1-6)]Man(a1-6)[GlcNAc(b1-4)][Gal(b1-4)GlcNAc(b1-2)[Gal(b1-4)GlcNAc(b1-4)]Man(a1-3)]Man(b1-4)GlcNAc(b1-4)[Fuc(a1-6)]GlcNAc
Outline: as §1

[28] = target: Gal(b1-4)GlcNAc(b1-3)Gal(b1-3)GalNAc
Outline: as §1

[29] = target: Gal(b1-4)GlcNAc(b1-3)Gal(b1-3)GlcNAc
Outline: as §1

[30] = target: Gal(b1-4)GlcNAc(b1-3)Gal(b1-4)Glc
Outline: as §1

[31] = target: Gal(b1-4)GlcNAc(b1-3)Gal(b1-4)GlcNAc
Outline: as §1

[32] = target: Gal(b1-4)GlcNAc(b1-3)Gal(b1-4)GlcNAc(b1-2)Man(a1-3)[Gal(b1-4)GlcNAc(b1-3)Gal(b1-4)GlcNAc(b1-2)Man(a1-6)]Man(b1-4)GlcNAc(b1-4)GlcNAc
Outline: as §1

[33] = target: Gal(b1-4)GlcNAc(b1-3)Gal(b1-4)GlcNAc(b1-2)Man(a1-3)[Gal(b1-4)GlcNAc(b1-3)Gal(b1-4)GlcNAc(b1-2)Man(a1-6)]Man(b1-4)GlcNAc(b1-4)[Fuc(a1-6)]GlcNAc
Outline: as §1

B1: LecRKVI.2 (protein)
chain: RTTTNFAFRGFNGNQSKIRIEGAAMIKPDGLLRLTDRKSNVTGTAFYHKPVRLLNRNSTNVTIRSFSTSFVFVIIPSSSSNKGFGFTFTLSPTPYRLNAGSAQYLGVFNKENNGDPRNHVFAVEFDTVQGSRDDNTDRIGNDIGLNYNSRTSDLQEPVVYYNNDDHNKKEDFQLESGNPIQALLEYDGATQMLNVTVYPARLGFKPTKPLISQHVPKLLEIVQEEMYVGFTASTGKGQSSAHYVMGWSFSSGGERPIADVLILSELPPPPPNKAKKEGLNS
With B1 the “glycan array binding signal (z-score)” value [1] was 0.164, the “glycan array binding signal (z-score)” value [2] was -0.332 and the “glycan array binding signal (z-score)” value [3] was -0.409. For the same binder, the “glycan array binding signal (z-score)” value [4] was -0.28, the “glycan array binding signal (z-score)” value [5] was -0.225 and the “glycan array binding signal (z-score)” value (Gal(b1-4)Gal) was -0.396. For the same binder, the “glycan array binding signal (z-score)” value [6] was -0.303, the “glycan array binding signal (z-score)” value [7] was -0.29 and the “glycan array binding signal (z-score)” value (Gal(b1-4)Glc) was -0.37. For the same binder, the “glycan array binding signal (z-score)” value (Gal(b1-4)Glc6S) was -0.338, the “glycan array binding signal (z-score)” value (Gal(b1-4)GlcNAc) was -0.176 and the “glycan array binding signal (z-score)” value [8] was 0.988. The “glycan array binding signal (z-score)” value (Gal(b1-4)GlcNAc(b1-2)Man) was -0.407, the “glycan array binding signal (z-score)” value [9] was 0.309 and the “glycan array binding signal (z-score)” value [10] was 0.352. The “glycan array binding signal (z-score)” value [11] was -0.34, the “glycan array binding signal (z-score)” value [12] was -0.326 and the “glycan array binding signal (z-score)” value [13] was -0.509. The “glycan array binding signal (z-score)” value [14] was -0.444, the “glycan array binding signal (z-score)” value [15] was -0.25 and the “glycan array binding signal (z-score)” value [16] was 0.014. For the same binder, the “glycan array binding signal (z-score)” value [17] was 0.432, the “glycan array binding signal (z-score)” value [18] was -0.315 and the “glycan array binding signal (z-score)” value [19] was 1.15. The “glycan array binding signal (z-score)” value [20] was 0.091, the “glycan array binding signal (z-score)” value [21] was 0.071 and the “glycan array binding signal (z-score)” value [22] was -0.319. The “glycan array binding signal (z-score)” value [23] was -0.371, the “glycan array binding signal (z-score)” value [24] was 0.451 and the “glycan array binding signal (z-score)” value [25] was 0.865. For the same binder, the “glycan array binding signal (z-score)” value [26] was 0.506, the “glycan array binding signal (z-score)” value [27] was -0.077 and the “glycan array binding signal (z-score)” value [28] was -0.047. The “glycan array binding signal (z-score)” value [29] was -0.326, the “glycan array binding signal (z-score)” value [30] was -0.296 and the “glycan array binding signal (z-score)” value [31] was -0.308. The “glycan array binding signal (z-score)” value [32] was 1.09 and the “glycan array binding signal (z-score)” value [33] was 3.44.

Reference: the supplement of paper PMC8728848
